Data as given in patent publication US11059808B2, “Substituted phenylpyrrolecarboxamides with therapeutic activity in HIV” (New York Blood Center, Inc., priority 2014, dated 2021).

biological target: HIV (pNL4-3) heterodimeric (p66/p51) Reverse Transcriptase (RT) (Human immunodeficiency virus type 1 group M subtype B, UniProt P12497); assay: In vitro biochemical HIV-1 Reverse Transcriptase (RT) assay; details: not given
Protocol: Purified recombinant HIV (pNL4-3) heterodimeric (p66/p51) Reverse Transcriptase (RT) was purchased from a commercially available source. The assay was performed in 96-well filter plate, where RT activity was determined by the incorporation of radiolabeled deoxyribonucleotides into the newly synthesized DNA strand. […] Briefly, the reaction was carried out in a volume of 50 μl containing 50 mM Tris HCl, pH 7.8, 50 mM KCl, 5 mM MgCl2, 1 mM DTT, 50 μM each of dATP, dCTP, dGTP, 50 nM dTTP, 1 μCi of [^3H] dTTP (70-90 Ci/mM) and 5 nM template/primer. The reaction was initiated by the addition of 10 nM RT.
Compounds were diluted in 100% DMSO to 40 mM. Each compound was diluted in the appropriate reaction buffer for the biochemical assay per protocol. Serially diluted test compounds were added to the reaction followed by the addition of RT. The reaction mixture was incubated at 37° C. for 1 h, and then quenched by the addition of ice-cold trichloroacetic acid (TCA) to the final concentration of 10%. The plate was incubated at 4° C. for 1 h to precipitate the synthesized DNA, then rinsed 3-times with 10% TCA and 1 time with 70% ethanol. After addition of 25 μl scintillation fluid to completely dried wells, radioactivity was counted by MicroBeta scintillation counter (PerkinElmer). The reduction of radioactivity represents the potency of compound inhibition. (See Table 3)

Compound | IC50
NCC(NC(=O)c1ccc(-c2ccc(Cl)c(F)c2)[nH]1)c1ncc(CO)s1 (single isomer, unassigned) [Compound 90] | 2720 nM
Cc1nc(C(NC(=O)c2ccc(-c3ccc(Cl)cc3)[nH]2)C2CCCCN2)sc1CO (single isomer, unassigned) [Compound 17] | 43400 nM
Cc1nc(C(CN)NC(=O)c2ccc(-c3ccc(Cl)c(F)c3)[nH]2)sc1CO (single isomer, unassigned) [Compound 41] | 2560 nM
Cc1ccnc2c1NC(=O)c1cccnc1N2C1CC1 [Nevirapine, reference compound] | 200 nM

same assay, conditions: HIV-1 Reverse Transcriptase (RT) assay

Compound | IC50
NBD-556 | > 200000 nM
Cc1cn([C@H]2C[C@H](N=[N+]=[N-])[C@@H](COP(=O)(O)OP(=O)(O)OP(=O)(O)O)O2)c(=O)[nH]c1=O [AZT-TP, reference compound] | 8 nM
